# The list shows a part of the results.
# Test system: HSkMC (human skeletal muscle cells)
# Test: cytotoxicity call (relative viability < 0.9)
# Details: 10 µM
row,SMILES,cytotoxicity call
1,Cc1noc(C)c1NC(=O)N(C)C[C@@H]1Oc2c(NC(=O)C3CCOCC3)cccc2C(=O)N([C@@H](C)CO)C[C@@H]1C,inactive
2,C[C@@H]1CN([C@@H](C)CO)C(=O)c2cc(-c3cncnc3)cnc2O[C@H]1CN(C)C(=O)CN1CCOCC1,inactive
3,Cc1cc(C(=O)COC(=O)Cn2cnc3c2c(=O)n(C)c(=O)n3C)c(C)n1C,inactive
4,Cc1nc(N)sc1-c1ccnc(Nc2ccc(N3CCOCC3)cc2)n1,inactive
5,N[C@H]1[C@H](CCCCC(=O)O)SC[C@@H]1N,inactive
6,O=C(C[C@H]1C=C[C@@H](NS(=O)(=O)c2ccc(F)cc2)[C@H](CO)O1)N1CCC(Cc2ccccc2)CC1,inactive
7,C[C@@H]1CCCCO[C@@H](CN(C)C(=O)Nc2cccc3ccccc23)[C@H](C)CN([C@H](C)CO)C(=O)c2cc(NC(=O)Nc3ccc(C(F)(F)F)cc3)ccc2O1,inactive
8,C[C@@H]1CN([C@H](C)CO)C(=O)c2cc(NS(=O)(=O)c3ccc(F)cc3)ccc2O[C@@H]1CN(C)Cc1ccc(Cl)c(Cl)c1,inactive
9,CC(C)NC(=O)Nc1cccc2c1O[C@@H](CN(C)S(=O)(=O)c1ccccc1)[C@@H](C)CN([C@@H](C)CO)C2=O,inactive
10,C[C@H](CO)N1C[C@H](C)[C@@H](CN(C)C(=O)Nc2cccc3ccccc23)OCc2cn(nn2)CCCC1=O,inactive
11,OCC1(CO)COC(COc2ccccc2)=N1,inactive
12,O=C(C[C@H]1CC[C@@H](NC(=O)CN2CCOCC2)[C@@H](CO)O1)NC1CCC1,inactive
13,COC(=O)[C@H]1[C@H](CO)[C@H]2Cn3c(ccc(-c4ccccc4)c3=O)[C@H]2N1S(C)(=O)=O,inactive
14,C[C@@H]1CN([C@H](C)CO)C(=O)c2cc(NC(=O)Nc3ccc(C(F)(F)F)cc3)ccc2O[C@@H](C)CCCCO[C@H]1CN(C)S(=O)(=O)c1cccs1,inactive
15,COc1ccc(S(=O)(=O)N(C)C[C@H]2Oc3cc(C#CC4CC4)ccc3S(=O)(=O)N([C@@H](C)CO)C[C@H]2C)cc1,inactive
16,C[C@H](CO)N1C[C@H](C)[C@@H](CN(C)C(=O)Cc2ccncc2)Oc2cc(C#CC3(O)CCCC3)ccc2S1(=O)=O,inactive

row,SMILES,cytotoxicity call
1,C[C@H]1CN([C@@H](C)CO)C(=O)c2cc(NC(=O)CCC(F)(F)F)ccc2O[C@H]1CN(C)S(C)(=O)=O,inactive
2,Cc1noc(C)c1S(=O)(=O)Nc1ccc2c(c1)C(=O)N([C@@H](C)CO)C[C@H](C)[C@@H](CN(C)S(=O)(=O)c1cn(C)cn1)OCCCC[C@H](C)O2,inactive
3,C=C[C@@H](COC(=O)OC(C)(C)C)N(Cc1ccc(OC)cc1)S(=O)(=O)c1ccc(Br)cc1,inactive
4,COCCNC(=O)C[C@@H]1CC[C@H]2[C@H](COc3ccc(NC(=O)Nc4cccc(F)c4)cc3C(=O)N2C)O1,inactive
5,N#C/C(=C\c1cccs1)c1csc2ccc(Cl)cc12,inactive
6,C[N+](C)(C)CCCCCC[N+](C)(C)C.[Br-].[Br-],inactive
7,COC(=O)c1c2oc(c1C(=O)OC)C(=O)N(C)Cc1cn(nn1)C[C@@H](C)NC(=O)N[C@H](COC(=O)NCCCCCC(=O)NO)CC2,inactive
8,C[C@H](CO)N1C[C@H](C)[C@@H](CN(C)S(C)(=O)=O)Oc2cc(C#CCN(C)C)ccc2S1(=O)=O,inactive
9,CC(C)C#Cc1ccc2c(c1)O[C@H](CN(C)C(=O)Cc1ccccn1)[C@@H](C)CN([C@@H](C)CO)S2(=O)=O,inactive
10,CCS(=O)(=O)Nc1ccc2c(c1)C(=O)N(C)[C@H]1CC[C@H](CC(=O)NCc3ccccc3F)O[C@@H]1CO2,inactive
11,N#Cc1cc(F)cc(Oc2ccc(S(=O)(=O)C(F)F)c3c2CC(F)(F)[C@@H]3O)c1.N#Cc1cc(F)cc(Oc2ccc(S(=O)(=O)C(F)F)c3c2CC(F)(F)[C@H]3O)c1,inactive
12,C[C@H](CO)N1C[C@H](C)[C@@H](CN(C)C(=O)Nc2ccc3c(c2)OCO3)Oc2ncc(-c3cccnc3)cc2C1=O,inactive
13,C[C@@H]1CN([C@H](C)CO)C(=O)CCCn2cc(nn2)CO[C@@H]1CN(C)S(=O)(=O)c1ccccc1C#N,inactive
14,C[C@@H]1CN([C@H](C)CO)C(=O)c2cc(NC(=O)Cc3ccccc3)ccc2O[C@@H](C)CCCCO[C@@H]1CN(C)S(=O)(=O)c1cccs1,inactive
15,O=C(C[C@@H]1C[C@H]2c3cc(NC(=O)C4CCOCC4)ccc3O[C@H]2[C@@H](CO)O1)NCc1ccc2c(c1)OCO2,inactive
